Laboratory results taken from PubChem BioAssay AID485367 (National Center for Advancing Translational Sciences (NCATS), 2010).
The campaign covered roughly 330,000 compounds. About 560 (0.17%) were called active. Inconclusive means that the source gave no clear call. Such entries were picked first, then a sample of the others. The call rests on the fitted dose curve; in most records, active means well fitted inhibition curve with a large enough effect; inconclusive means small, poorly fitted or top-dose-only effect, or effect the other way; inactive means flat fitted curve, though single readings scatter. Potencies of inconclusive entries are left out as doubtful fits.
Further: nearly all actives have a fitted effect of over 60% in size.
Potency means the concentration at half of the fitted maximal effect; tags describe the fitted curve by direction and shape.
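Wherever activity, negative = inhibition is given: 0% = uninhibited 1x PFK enzyme wells and -100% = no-enzyme wells.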

Each molecule was assayed against ATP-dependent 6-phosphofructokinase (Trypanosoma brucei brucei) (UniProt O15648) (assay: qHTS Assay to Find Inhibitors of T. brucei phosphofructokinase). Conditions: T. brucei PFK, ADP-Glo luminescence; activity, negative = inhibition: at 57.5 µM (top of the series).
UniProt O15648, sequence (O15648 whole entry, looked up): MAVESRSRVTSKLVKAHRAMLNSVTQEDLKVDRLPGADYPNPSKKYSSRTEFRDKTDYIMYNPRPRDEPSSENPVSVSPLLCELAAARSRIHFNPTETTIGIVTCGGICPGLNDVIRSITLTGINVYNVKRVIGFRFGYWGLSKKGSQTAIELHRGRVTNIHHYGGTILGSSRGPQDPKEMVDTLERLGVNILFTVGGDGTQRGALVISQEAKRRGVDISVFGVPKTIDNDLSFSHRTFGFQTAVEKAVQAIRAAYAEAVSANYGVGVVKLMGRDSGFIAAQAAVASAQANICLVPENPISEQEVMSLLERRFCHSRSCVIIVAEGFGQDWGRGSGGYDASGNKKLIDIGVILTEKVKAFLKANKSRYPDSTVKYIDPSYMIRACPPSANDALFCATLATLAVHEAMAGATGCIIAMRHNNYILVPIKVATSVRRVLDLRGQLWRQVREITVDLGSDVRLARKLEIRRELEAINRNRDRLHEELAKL
How it was run: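 Luminescent ADP detection (ADP-Glo, two-step: ATP depletion then ADP-to-ATP conversion for luciferase) reported PFK activity after 45 min room-temperature reaction of 1.25 nM enzyme with 0.5 mM F6P and 0.1 mM ATP at pH 8.0.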
In the case of `COc1cc2sc3cc(NCc4ccc(C)o4)ccc3c(=O)c2cc1OC`, the “activity, negative = inhibition” value is reported as inactive: 8.7%. In the case of `CCCCCCC(=O)Nc1ccc(Br)cn1`, the Potency is reported as inconclusive [falling, single point]. For `CCSS(=O)(=O)c1cccc2cccnc12`, the Potency was active: 21.3 µM. In the case of `CC(C)C12CN3CC(C(C)C)(CN(C1)C3c1ccccc1O)C2=O` (stereo unspecified), the Potency is reported as inconclusive [falling, full curve]. In the case of `O=C(CSc1nccc(-c2cccs2)n1)Nc1ccc(F)c(Cl)c1`, the “activity, negative = inhibition” value is reported as inactive: -14.4%. For `Cc1ncc(CN2CCCC(C(=O)Nc3ccc(-c4ccco4)cc3)C2)cn1` (stereo unspecified), the Potency was inconclusive [falling, full curve, poor fit]. For `CCOc1ccc(CCNC(=O)c2ccc(Cl)c(S(=O)(=O)N3CCOCC3)c2)cc1OCC`, the “activity, negative = inhibition” value was inactive: -5.4%. In the case of `Cc1cc(OCC(O)CN)ccc1Cl` (stereo unspecified), the Potency is reported as inconclusive [falling, single point]. `Nc1nc2ccccc2n1C(=O)c1ccccc1` was tested, and the Potency was inconclusive [falling, partial curve, poor fit]. In the case of `CCOC(=O)/C(C(N)=NCC(C)C)=C(/O)c1ccccc1`, the Potency is reported as inconclusive [activator, single point]. For `CNc1ccc([N+](=O)[O-])cc1`, the Potency was inconclusive [falling, partial curve]. In the case of `O=c1ccc2[n+]([O-])c3ccc(O)cc3oc-2c1`, the Potency is reported as inconclusive [falling, single point]. `O=c1ccnc(NCCc2ccccc2)[nH]1` was tested, and the Potency was active: 9.53 µM. With `COc1ccc(NC(=O)N2CCN(c3ccc([N+](=O)[O-])cc3)CC2)cc1OC` the Potency was inconclusive [falling, single point]. With `N=c1n(CCN2CCCCC2)c2ccccc2n1CC(=O)c1ccc(Cl)c(Cl)c1` the “activity, negative = inhibition” value was inactive: -0.0242%. `O=C(O)C1C2C=CC(C2)C1C(=O)NCc1cccs1` (stereo unspecified) was tested, and the Potency was inconclusive [falling, single point]. `COC(=O)c1c(NC(=O)COC(=O)c2ccc(NC(=O)CC#N)cc2)sc2c1CCCCC2` was tested, and the Potency was inconclusive [falling, partial curve]. For `COc1ccc(NC(C)c2cc(Cl)ccc2O)cc1` (stereo unspecified), the Potency was inconclusive [falling, single point]. In the case of `O=C(NCCCn1ccnc1)Nc1ccc(Cl)c(Cl)c1`, the Potency is reported as inconclusive [falling, single point]. With `Cn1c2c(c(=O)n(C)c1=O)C(C(F)(F)F)(C(F)(F)F)N=C(c1ccc(Cl)cc1)N2` the “activity, negative = inhibition” value was inactive: -2.6%. `O=C(NNC(=O)c1ccccc1OCc1ccccc1)c1ccccc1F` was tested, and the Potency was inconclusive [falling, single point]. `Cc1ccc(C(=O)NC(C)CCc2ccccc2)cc1S(=O)(=O)N1CCOCC1` (stereo unspecified) was tested, and the “activity, negative = inhibition” value was inactive: 0%. In the case of `CCOc1cc(/C=C\[N+](=O)[O-])ccc1OCC(=O)N1CCOCC1`, the Potency is reported as inconclusive [activator, full curve]. In the case of `COc1ccc(-c2cc(-c3cc(C)ccc3O)[nH]n2)cc1`, the “activity, negative = inhibition” value is reported as inactive: -5.36%. `S=C(NCc1ccco1)N/N=C/c1ccccc1Cl` was tested, and the Potency was inconclusive [falling, single point]. `O=C(NCc1ccco1)C1CCN(S(=O)(=O)N2CCOCC2)CC1` was tested, and the activity, negative = inhibition was inactive: -6.52% [at 0.46 µM]. For `N[C@@H](Cc1cc(I)c(Oc2ccc(O)c(I)c2)c(I)c1)C(=O)O`, the Potency was inconclusive [falling, single point]. With `O=c1c2cccc(Cl)c2nc2n1Cc1ccccc1-2` the Potency was inconclusive [falling, partial curve]. For `Cc1ccc(S(=O)(=O)c2ccc([N+](=O)[O-])cn2)cc1`, the Potency was inconclusive [falling, partial curve]. For `Cc1nn(Cc2ccc(Cl)c(Cl)c2)c(C)c1NC(=O)c1cc(CC(C)C)on1`, the Potency was active: 30.1 µM. For `Cc1nc(Cc2nnc(SCC(=O)N3CCN(c4ccc(O)cc4)CC3)o2)cs1`, the Potency was inconclusive [falling, partial curve]. With `COc1cc2cc3c(N)c(C(=O)Nc4sc(C)c(C)c4C#N)sc3nc2cc1OC` the Potency was inconclusive [falling, full curve]. For `CCc1nnc(NC(=O)c2csc3c2CCC(C)C3)s1` (stereo unspecified), the Potency was inconclusive [falling, single point]. `CCN(CC(=O)Nc1ccc(OC)cc1)C(=O)c1ccc([N+](=O)[O-])cc1` was tested, and the “activity, negative = inhibition” value was inactive: -1.91%. For `O=C(O)C1CSC(c2ccco2)N1` (stereo unspecified), the Potency was inconclusive [falling, single point]. For `O=C(Cc1ccc(Cl)cc1)Nc1cccc(S(=O)(=O)N2CCCCC2)c1`, the Potency was inconclusive [falling, single point]. In the case of `COc1ccc(NC(=O)CN(c2ccccc2)S(=O)(=O)N(C)C)cc1OC`, the Potency is reported as inconclusive [falling, single point]. In the case of `c1ccc(OCCN2C3=NCCN3c3ccccc32)cc1`, the Potency is reported as active: 21.3 µM. `O=C(NC1CCCCCC1)C(=S)NC1CCCCC1` was tested, and the Potency was inconclusive [falling, partial curve]. `COc1ccc2c(CC(=O)N3CCN(S(=O)(=O)c4cccs4)CC3)coc2c1` was tested, and the “activity, negative = inhibition” value was inactive: 0.114%. In the case of `COc1ccc2cc(-c3cc(C(=O)O)c4ccccc4n3)ccc2c1`, the “activity, negative = inhibition” value is reported as inactive: 3.26%. In the case of `O=C(NC1CCN(Cc2ccccc2)CC1)c1cc(Br)c(Br)[nH]1`, the “activity, negative = inhibition” value is reported as inactive: -0.675%. `O=C(N/N=C/c1ccc(N2CCOCC2)cc1)C1COc2ccccc2O1` (stereo unspecified) was tested, and the Potency was inconclusive [falling, single point]. In the case of `Cc1nc2ccc(N=NN(C)C)cc2[nH]1`, the “activity, negative = inhibition” value is reported as inactive: -11.4%. In the case of `CCN(C(=O)COC(=O)/C=C/c1ccc(OC(F)F)c(OC)c1)C1CCS(=O)(=O)C1` (stereo unspecified), the “activity, negative = inhibition” value is reported as inactive: -4.83%. In the case of `Cc1ccc(-c2nn3c(C)nnc3c3ccccc23)cc1S(=O)(=O)NCc1ccco1`, the activity, negative = inhibition is reported as inconclusive: -35.6%. `CN(CCOc1ccc(Cl)cc1)C(=O)Cc1ccc(S(=O)(=O)N2CCOCC2)s1` was tested, and the “activity, negative = inhibition” value was inactive: -1.75%. For `Nn1c(SCC(=O)NC(=O)NCc2ccco2)nnc1-c1ccc(OC(F)F)cc1`, the “activity, negative = inhibition” value was inactive: -21.9%. `COCCOC(=O)c1[nH]c2c(c1C)C(=O)CC(c1ccco1)C2` (stereo unspecified) was tested, and the Potency was inconclusive [falling, single point]. With `COCCN(C(=O)c1cc2c(s1)CCC2)c1c(N)n(CC(C)C)c(=O)[nH]c1=O` the Potency was inconclusive [falling, partial curve]. With `CC(C)n1ncc2c(C(=O)Nc3ccc(S(C)(=O)=O)cc3)cc(C3CC3)nc21` the Potency was inconclusive [activator, single point]. `CN1CCN(C(=S)c2ccc(Br)cc2)CC1` was tested, and the Potency was inconclusive [falling, partial curve]. In the case of `COc1cc(C(C)=O)ccc1Oc1ncnc2c1cnn2-c1ccc(F)cc1`, the Potency is reported as inconclusive [activator, single point]. `O=[N+]([O-])c1ccc(CNc2ccc(F)cc2)s1` was tested, and the Potency was active: 16.9 µM. `O=C(Nc1ccc2c(c1)OCCO2)c1ccc(Cl)c([N+](=O)[O-])c1` was tested, and the Potency was active: 26.9 µM. For `O=c1c2c3c(sc2nc2n1CCCCC2)CCCCC3`, the “activity, negative = inhibition” value was inactive: -1.92%. In the case of `O=C(O)Cc1sc(Nc2ccc(Cl)cc2)nc1-c1cccs1`, the Potency is reported as inconclusive [falling, single point]. With `O=C(O)c1ccc(N=Nc2c(O)[nH]c3cc(Cl)ccc23)cc1` the Potency was inconclusive [activator, partial curve]. In the case of `N#Cc1cc2nc(O)c(O)nc2cc1[N+](=O)[O-]`, the “activity, negative = inhibition” value is reported as inactive: -15.7%. `CN(C)S(=O)(=O)c1ccc(NC(=O)C2COc3ccccc3O2)cc1` (stereo unspecified) was tested, and the Potency was active: 19 µM. In the case of `COc1ccc(NS(=O)(=O)c2ccc(N3CCCC3)c(NC(=S)Nc3ccc(SC(F)F)cc3)c2)cc1`, the Potency is reported as inconclusive [falling, partial curve]. `Cc1ccc(-c2nnc(NC(=O)c3ccco3)s2)cc1` was tested, and the “activity, negative = inhibition” value was inactive: -1.53%. With `O=C(COc1ccccc1F)Nc1ccc(S(=O)(=O)N2CCCC2)cc1` the Potency was inconclusive [falling, single point]. `O=C(Cc1ccc(Cl)c(Cl)c1)N/N=C/c1cccnc1` was tested, and the Potency was active: 12 µM. For `Cc1cc(/C=N/NC(=O)c2ccncc2)c(C)n1-c1ccccc1`, the “activity, negative = inhibition” value was inactive: -6.36%. For `O=C(COc1ccc(C(=O)c2ccccc2)cc1)NC1CCCCC1`, the “activity, negative = inhibition” value was inactive: -1.24%. With `c1ccc(CN2CCN(c3nc4ccccc4s3)CC2)cc1` the Potency was inconclusive [falling, single point]. For `COc1cc(/C=N/NC(=O)CSCc2ccc([N+](=O)[O-])cc2)cc(OC)c1OC`, the Potency was inconclusive [falling, single point]. `ON=C1c2ccccc2-c2ccccc21` was tested, and the Potency was inconclusive [activator, partial curve]. For `Cc1oc(-c2ccccc2Cl)nc1CN1CCCCC1CO` (stereo unspecified), the Potency was inconclusive [falling, single point]. For `CCOc1ccc(NC(=O)c2cccc(-n3cccc3)c2)cc1S(=O)(=O)N1CCOCC1`, the Potency was inconclusive [falling, partial curve, poor fit]. In the case of `COC(=O)c1ccc(CSc2nc(N)cc(N)n2)cc1`, the Potency is reported as inconclusive [activator, single point]. With `O=C(Nc1nnc(-c2cccs2)o1)C1CC1` the “activity, negative = inhibition” value was inactive: 0.522%. For `CS(=O)(=O)c1cc([N+](=O)[O-])c(Sc2nc3ccccc3[nH]2)c([N+](=O)[O-])c1`, the Potency was inconclusive [falling, full curve, poor fit]. For `O=C1OC(c2ccccc2)=N/C1=C\C=C\c1ccccc1[N+](=O)[O-]`, the Potency was inconclusive [activator, single point]. For `Cc1ccc(C(=O)Nc2cccc([N+](=O)[O-])c2)cc1S(=O)(=O)Nc1cccc(C(=O)O)c1`, the Potency was active: 19 µM.
